From PubChem BioAssay AID938 (National Center for Advancing Translational Sciences (NCATS), 2007)
About 1,800 (2.5%) of roughly 73,000 compounds were called active. The shares of active, inactive and inconclusive entries below differ from those in the screen. Calls follow the shape of the dose curve; as a rule, active = well fitted activation curve with a large enough effect; inconclusive = small, poorly fitted or top-dose-only effect; inactive = no such curve, though single readings can be large or run the other way. Potencies of inconclusive entries are left out as doubtful fits.

Assay: qHTS Assay for Agonists of the Thyroid Stimulating Hormone Receptor: Activators of Intracellular cAMP Concentrations in Parental HEK 293; also: nearly all actives have a fitted effect of over 55% in size; as to activation: % of control where 0% means no effect
Conditions: parental HEK293 CNG cAMP sensor, membrane potential fluorescence; activation: at 57.1 µM (top of the series) unless noted
Outline: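 Counterscreen for endogenous-receptor signalling: CNG-channel HEK 293 cells report cAMP rise by membrane depolarization. After 60 min dye equilibration with 100 uM RO 20-1724, compounds incubated 30 min before bottom-read fluorescence at 590 nm.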
Potency is read from the fitted curve at half-maximal effect; tags tell the direction and shape of the fitted curve.

| Compound | Potency | activation |
| --- | --- | --- |
| CC(C)CN1CC2(CCN(C(=O)c3ccco3)CC2)C1 | active: 20 µM |  |
| CCOCCCNC(=O)N[C@@H](C)C(=O)OC | inconclusive [activator, single point] |  |
| COc1ccc(-c2noc(CCC(=O)N3CCN(Cc4ccccc4)CC3)n2)cc1 | inconclusive [activator, partial curve] |  |
| CC(c1ccco1)N(C(=O)COc1ccc(Cl)cc1Cl)c1ccccn1 (configuration not stated) | active: 25.1 µM |  |
| O=C(c1c(F)cccc1F)N1CCN(c2cccc(C(F)(F)F)c2)CC1 | inconclusive [activator, partial curve] |  |
| COc1ccc(CCN2CC(C#N)=C3c4cc(OC)c(OC)cc4CCN3C2)cc1OC | inconclusive [activator, single point] |  |
| Cc1ccc2c(c1)C(=O)[C@]1(O)CCN(c3ccccc3)C1=N2 | inactive |  |
| C(#Cc1ccccc1)Cn1nnc2ccccc21 | inconclusive [activator, partial curve] |  |
| COc1ccccc1N1CCN(C(=O)c2sc3nc(-c4ccc(F)cc4)cn3c2C)CC1 | inconclusive [activator, partial curve] |  |
| CCCSc1oc(-c2ccco2)nc1S(=O)(=O)c1ccccc1 | active: 25.1 µM |  |
| CCOC(=O)C1=C(CS(=O)(=O)c2ccc(F)c(C)c2)NC(=O)NC1c1ccc(O)c(O)c1 (configuration not stated) | inconclusive [activator, single point] |  |
| Cc1ccc2c(CC(=O)OCn3nnc4ccccc4c3=O)coc2c1 | inconclusive [activator, partial curve] |  |
| Cc1cccc(CNc2cc(-c3ccccc3Cl)ncn2)c1 | inconclusive [activator, full curve, poor fit] |  |
| O=C(NCc1ccc2c(c1)OCO2)C1CC(=O)N(C2CCCC2)C1 (configuration not stated) | inconclusive [activator, partial curve] |  |
| CCOC(=O)c1ccccc1NC(=O)CN1C(=O)c2ccccc2S1(=O)=O | inactive |  |
| c1ccc(-c2nnc(-c3ccccn3)nn2)nc1 | inactive |  |
| O=C(NCCN1CCCC1)c1ccc(Cn2c(=S)[nH]c3cc4c(cc3c2=O)OCO4)cc1 | inconclusive [activator, single point] |  |
| COc1ccc(-c2cc(C(F)(F)F)nc(N3CCN(C)CC3)n2)cc1 | inactive |  |
| Clc1ccc(OCc2nnc3n2N=C(c2ccc4c(c2)OCCO4)CS3)c(Cl)c1 | inconclusive [activator, single point] |  |
| CC1Oc2ccccc2N(Cc2ccccc2Cl)C1=O (configuration not stated) | inconclusive [activator, single point] |  |
| N#Cc1nc(Cc2ccccc2)oc1N1CCN(c2cccc(Cl)c2)CC1 | inconclusive [activator, full curve, poor fit] |  |

| Compound | Potency | activation |
| --- | --- | --- |
| Cc1noc(C)c1C(=O)N1CCC2(CCN(Cc3ccncc3)CC2)CC1 | inactive |  |
| COc1cc2nc(NC(=O)c3ccccc3)[nH]c(=O)c2cc1OC | inconclusive [activator, single point] |  |
| CCC(c1nnc(SCC(=O)Nc2nnc(-c3ccccc3)o2)n1Cc1ccccc1)N(C)C (configuration not stated) | inconclusive [activator, single point] |  |
| COc1ccc(Oc2ncc3ncc(=O)n(CCc4ccccc4)c3n2)cc1 | inconclusive [activator, partial curve] |  |
| O=C(c1ccc2c(=O)n(Cc3ccc4c(c3)OCO4)c(=S)[nH]c2c1)N1CCCCC1 | inconclusive [activator, partial curve] |  |
| CCCCOc1ncnc2c1[nH]c1ccccc12 | inconclusive [activator, partial curve] |  |
| COc1ccc(-c2cnc(SCC(=O)Nc3cc(C)on3)n2Cc2ccco2)cc1 | inconclusive [activator, partial curve] |  |
| O=C(c1ccc(=O)n(Cc2ccccc2)n1)N1CCN(C/C=C/c2ccccc2)CC1 | inconclusive [activator, partial curve] |  |
| COC(=O)CSc1nnc(-c2ccccc2O)n1-c1ccc(C)cc1 | inconclusive [activator, single point] |  |
| Cc1cccc(NC(=O)C2CCCN2C(=O)OCC(C)C)c1C (configuration not stated) | inconclusive [activator, partial curve] |  |
| COc1ccccc1CN(Cc1cc2cc(C)ccc2[nH]c1=O)Cc1nnnn1CC1CCCO1 (configuration not stated) | inconclusive [activator, full curve, poor fit] |  |
| Cc1cccc(NC(=O)CN2CCCN(S(=O)(=O)c3ccc(Br)s3)CC2)c1 | inconclusive [activator, partial curve] |  |
| COc1ccc(OC)c2sc(N3CCCCC3)nc12 | inconclusive [activator, single point] |  |
| COc1ccccc1NC(=O)CSc1ncnc2c1oc1ccccc12 | inconclusive [activator, partial curve] |  |
| CCN(c1ccccc1)S(=O)(=O)c1ccc(OCc2c(C)noc2C)cc1 | inconclusive [activator, partial curve] |  |
| Cc1nnc2sc(-c3ccc(NC(=O)c4cccnc4)cc3)nn12 | inconclusive [activator, partial curve] |  |
| COc1cc(C(=O)N2CCN(c3ncnc4sc(C)c(C)c34)CC2)cc(OC)c1OC | inconclusive [activator, single point] |  |
| CCCC(C(=O)NC1CCCC1)N(Cc1cccs1)C(=O)c1snc(C(N)=O)c1N (configuration not stated) | inconclusive [activator, partial curve] |  |
| CN1CCN(c2ncc3nc(-c4cc(F)cc(F)c4)c(=O)n(Cc4cccs4)c3n2)CC1 |  | inactive: 10.1% [at 0.457 µM] |
| COc1ccc2c(c1)C(C)=CC(C)(C)N2C(=O)C(C)N1C(=O)c2ccccc2C1=O (configuration not stated) | inconclusive [activator, partial curve] |  |
| CCOc1ccc(NC(=O)C(C)Sc2nnc(C)n2C)cc1 (configuration not stated) | inconclusive [activator, single point] |  |
